# In PubChem BioAssay (Tox21):
# Several values for one entry are separate records, joined by “and”; a condition that tells them apart may be missing. Identical values can stand only once. This list was built around the results that the source calls inconclusive (neither active nor inactive); the mix of calls is not that of the screen. For some of these results: A potency beside an inconclusive call is a rough fit, not a confirmed value. Some compounds were tested as several samples or in several runs, with calls that do not always agree. Activity calls are given as the source filed them. Unless noted, calls come from the whole dose curve; as a rule, active = well fitted curve in the direction sought with a large enough effect in the repeat runs; inconclusive = weak or mixed curves; inactive = no such curve, though single readings can be large; an effect the other way counts as inactive or inconclusive.
# Assays:
# [1] = qHTS assay to identify small molecule that activate the aryl hydrocarbon receptor (AhR) signaling pathway - cell viability counter screen (AID 743086); note: potency is the fitted concentration of half-maximal effect; nearly all actives have a fitted effect of over 45% in size
# How it was run: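 HepG2-AhR-luc (HG2L7.5c1) cells, 4000/well, treated 24 h at 37 C with compound; viability measured as CellTiter-Fluor fluorescence after 30 min in the same wells as the luciferase read.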
# [2] = target: Peroxisome proliferator-activated receptor gamma (Homo sapiens) (UniProt P37231); test: qHTS assay to identify small molecule agonists of the peroxisome proliferator-activated receptor gamma (PPARg) signaling pathway (AID 743094; active = well fitted activation curve with a large enough effect in the signal ratio in the repeat runs, not every such curve was filed as active; inconclusive = weak or mixed curves, or effect the other way; inactive = no such curve, though single readings can be large or run the other way; the % refers to the signal ratio; note: % is set by controls: 0 for no effect and ±100 for the full control effect); details: HEK293H PPARg-UAS-bla, beta-lactamase FRET ratio, 17 h; activation: at 57 µM (top of the series) unless noted
# Sequence of UniProt P37231 (P37231 whole entry, looked up): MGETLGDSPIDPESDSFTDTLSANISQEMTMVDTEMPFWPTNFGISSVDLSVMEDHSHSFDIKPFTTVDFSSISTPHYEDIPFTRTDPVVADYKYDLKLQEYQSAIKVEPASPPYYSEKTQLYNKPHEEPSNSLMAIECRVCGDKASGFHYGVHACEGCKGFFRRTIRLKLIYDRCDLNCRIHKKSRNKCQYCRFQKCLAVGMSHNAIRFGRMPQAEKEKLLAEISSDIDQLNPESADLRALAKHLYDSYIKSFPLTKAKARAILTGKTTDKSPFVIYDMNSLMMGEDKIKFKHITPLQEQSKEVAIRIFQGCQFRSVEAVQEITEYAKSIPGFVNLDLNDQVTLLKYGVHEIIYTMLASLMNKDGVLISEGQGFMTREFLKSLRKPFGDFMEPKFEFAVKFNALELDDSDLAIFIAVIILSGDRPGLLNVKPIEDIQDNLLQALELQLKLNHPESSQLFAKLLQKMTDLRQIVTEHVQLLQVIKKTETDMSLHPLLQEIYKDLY
# How it was run: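 Reporter activation was scored by fluorescence of cleaved LiveBLAzer B/G substrate (1 h, room temperature) in PPARg-bla HEK293H cells previously treated 17 h at 37C with DMSO-dissolved compounds.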
# [3] = target: Peroxisome proliferator-activated receptor gamma (Homo sapiens) (UniProt P37231); test: qHTS assay to identify small molecule antagonists of the peroxisome proliferator-activated receptor gamma (PPARg) signaling pathway (AID 743191; calls by dose curve; note: potency is the fitted concentration of half-maximal effect; nearly all actives have a fitted effect of over 30% in size); details: HEK293H PPARg-UAS-bla, beta-lactamase ratio, antagonist, 17 h; ratio activity, negative = inhibition: at 62.6 µM (top of the series) unless noted
# How it was run: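 GeneBLAzer PPARg UAS-bla HEK293H cells, 5 h post-plating, exposed to compounds 17 h at 37C. LiveBLAzer B/G FRET substrate added for 1 h at room temperature; beta-lactamase reporter read by fluorescence intensity.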
# [4] = qHTS assay to identify small molecule antagonists of the peroxisome proliferator-activated receptor gamma (PPARg) signaling pathway - cell viability counter screen (AID 743194); details: PPARg-bla HEK293H viability, CellTiter-Glo luminescence, 17 h, co-treated with 50 nM rosiglitazone; activity change, negative = cytotoxicity: at 62.6 µM (top of the series) unless noted; note: potency is the fitted concentration of half-maximal effect; nearly all actives have a fitted effect of over 55% in size
# How it was run: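 Cytotoxicity counter screen in PPARg-bla HEK293H cells, same wells as reporter assay. Compounds plus 50 nM rosiglitazone (final) for 17 h at 37 C, then viability read by CellTiter-Glo luminescence.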
# [5] = qHTS assay for small molecule agonists of the antioxidant response element (ARE) signaling pathway - cell viability counter screen (AID 743203; calls by dose curve; note: potency is the fitted concentration of half-maximal effect; nearly all actives have a fitted effect of over 55% in size); details: ARE-bla HepG2 viability, CellTiter-Glo luminescence, 16 h; viability change, negative = cytotoxic: at 73.3 µM (top of the series)
# How it was run: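 Viability counter screen: stably transfected ARE-bla HepG2 line, 16 hrs compound exposure at 37C/5% CO2, ATP-based CellTiter-Glo luminescence measured in the reporter wells.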
# [6] = qHTS assay for small molecule activators of the heat shock response signaling pathway - cell viability counter screen (AID 743209); details: HSE-bla HeLa viability, CellTiter-Glo luminescence, 5 h; activity change, negative = cytotoxicity: at 62.6 µM (top of the series) unless noted; note: potency is the fitted concentration of half-maximal effect; nearly all actives have a fitted effect of over 50% in size
# How it was run: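 Viability of HSE-bla HeLa cells is measured with CellTiter-Glo in the wells already used for the reporter read. Compound exposure lasts 5 h at 37 C, and luminescence is read after 30 min at room temperature.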
# [7] = target: Peroxisome proliferator-activated receptor delta (Homo sapiens) (UniProt Q03181); test: qHTS assay to identify small molecule agonists of the peroxisome proliferator-activated receptor delta (PPARd) signaling pathway (AID 743212; calls by dose curve; note: potency is the fitted concentration of half-maximal effect); details: HEK293H PPARd-UAS-bla, beta-lactamase FRET ratio, 17 h; activation: at 62.6 µM (top of the series) unless noted
# Sequence of UniProt Q03181 (Q03181 whole entry, looked up): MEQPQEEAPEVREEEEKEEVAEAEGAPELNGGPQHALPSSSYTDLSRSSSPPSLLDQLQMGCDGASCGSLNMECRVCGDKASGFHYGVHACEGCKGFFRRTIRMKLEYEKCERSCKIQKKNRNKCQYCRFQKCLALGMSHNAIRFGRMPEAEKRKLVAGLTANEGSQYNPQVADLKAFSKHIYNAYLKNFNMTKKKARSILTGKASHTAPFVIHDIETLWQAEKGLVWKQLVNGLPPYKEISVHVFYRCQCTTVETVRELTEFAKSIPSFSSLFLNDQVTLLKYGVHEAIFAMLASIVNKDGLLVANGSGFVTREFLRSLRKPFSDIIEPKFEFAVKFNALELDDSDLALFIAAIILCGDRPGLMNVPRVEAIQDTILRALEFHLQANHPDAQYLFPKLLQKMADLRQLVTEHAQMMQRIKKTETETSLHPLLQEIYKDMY
# How it was run: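 Read-out: beta-lactamase FRET fluorescence after 2 h room-temperature incubation with LiveBLAzer B/G substrate. Cells were HEK293H carrying a UAS-bla reporter for PPARd, treated at 37 C with DMSO-dissolved compounds.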
# [8] = qHTS assay to identify small molecule antagonists of the peroxisome proliferator-activated receptor delta (PPARd) signaling pathway - cell viability counter screen (AID 743213); details: PPARd-bla HEK293H viability, CellTiter-Glo luminescence, 17 h; viability change, negative = cytotoxic: at 62 µM (top of the series) unless noted; note: potency is the fitted concentration of half-maximal effect; nearly all actives have a fitted effect of over 50% in size
# How it was run: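 Agonist-stimulated (L165041, 300 nM final) HEK293H PPARd UAS-bla cells are exposed to compounds for 17 h at 37 C, and ATP-based luminescence (CellTiter-Glo) from the same wells reports cytotoxicity.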
# [9] = target: Peroxisome proliferator-activated receptor delta (Homo sapiens) (UniProt Q03181); test: qHTS assay to identify small molecule antagonists of the peroxisome proliferator-activated receptor delta (PPARd) signaling pathway (AID 743215; active = well fitted inhibition curve with a large enough effect in the signal ratio in the repeat runs, not every such curve was filed as active; inconclusive = weak or mixed curves, or effect the other way; inactive = no such curve, though single readings can be large or run the other way; the % refers to the signal ratio; note: potency is the fitted concentration of half-maximal effect); details: HEK293H PPARd-UAS-bla, beta-lactamase FRET ratio, antagonist, 17 h; ratio activity, negative = inhibition: at 62 µM (top of the series) unless noted
# How it was run: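 Plated HEK293H PPARd-bla cells rested 5 h at 37 C and 5% CO2. Compound, then agonist L165041 at 300 nM final, was added; 17 h at 37 C followed. Substrate loading, 2 h room temperature, fluorescence measured.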
# [10] = qHTS assay to identify small molecule agonists of the farnesoid-X-receptor (FXR) signaling pathway - cell viability counter screen (AID 743218); details: FXR-bla HEK293T viability, CellTiter-Glo luminescence, 16 h; viability change, negative = cytotoxic: at 62.6 µM (top of the series) unless noted; note: potency is the fitted concentration of half-maximal effect; nearly all actives have a fitted effect of over 45% in size
# How it was run: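 Viability of FXR-bla HEK 293T cells is measured by ATP-based CellTiter-Glo luminescence following 16 h compound treatment at 37 C and a prior 2 h room-temperature beta-lactamase substrate step.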
# [11] = qHTS assay to identify small molecule antagonists of the vitamin D receptor (VDR) signaling pathway - cell viability counter screen (AID 743225); details: VDR-bla HEK293T viability, CellTiter-Glo luminescence, 16 h; viability change, negative = cytotoxic: at 61 µM (top of the series) unless noted; note: nearly all actives have a fitted effect of over 50% in size; note: potency is the fitted concentration of half-maximal effect; for viability change, negative = cytotoxic: % is set by controls: 0 for no effect and ±100 for the full control effect
# How it was run: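 Cells (VDR-UAS-bla HEK 293T) are plated, rested 4 h at 37C, dosed with compound and 3 nM final 1-alpha,25-dihydroxy vitamin D3, and incubated 16 h. Viability is taken from CellTiter-Glo luminescence in the reporter wells.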
# [12] = target: Vitamin D3 receptor (Homo sapiens) (UniProt P11473); test: qHTS assay to identify small molecule agonists of the vitamin D receptor (VDR) signaling pathway (AID 743222; calls by dose curve; note: potency is the fitted concentration of half-maximal effect); details: HEK293T VDR-UAS-bla, beta-lactamase FRET ratio, 16 h; activation: at 63.5 µM (top of the series) unless noted
# Sequence of UniProt P11473 (P11473 whole entry, looked up): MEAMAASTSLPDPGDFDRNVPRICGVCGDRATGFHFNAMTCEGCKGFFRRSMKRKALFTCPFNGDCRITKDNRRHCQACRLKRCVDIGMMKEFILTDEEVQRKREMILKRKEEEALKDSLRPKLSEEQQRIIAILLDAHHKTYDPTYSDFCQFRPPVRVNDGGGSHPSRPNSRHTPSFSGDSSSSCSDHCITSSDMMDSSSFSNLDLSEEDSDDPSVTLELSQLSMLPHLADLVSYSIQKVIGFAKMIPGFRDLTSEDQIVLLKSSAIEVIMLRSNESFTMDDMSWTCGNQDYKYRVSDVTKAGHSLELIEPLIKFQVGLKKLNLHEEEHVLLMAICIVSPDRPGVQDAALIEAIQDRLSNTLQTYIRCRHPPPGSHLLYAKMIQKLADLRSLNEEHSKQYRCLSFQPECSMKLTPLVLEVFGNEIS
# How it was run: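 Fluorescence from cleaved LiveBLAzer B/G FRET substrate served as readout. VDR-bla cells had been treated 16 h at 37C with test compounds in DMSO, following a 4 h settling period, and substrate was loaded for 2 h at RT.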
# [13] = target: Vitamin D3 receptor (Homo sapiens) (UniProt P11473); test: qHTS assay to identify small molecule antagonists of the vitamin D receptor (VDR) signaling pathway (AID 743223; active = well fitted inhibition curve with a large enough effect in the signal ratio in the repeat runs, not every such curve was filed as active; inconclusive = weak or mixed curves, or effect the other way; inactive = no such curve, though single readings can be large or run the other way; the % refers to the signal ratio; note: potency is the fitted concentration of half-maximal effect); details: VDR-UAS-bla HEK293T, beta-lactamase FRET ratio, 16 h; activity change, negative = inhibition: at 61 µM (top of the series) unless noted
# How it was run: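 Fluorescence from LiveBLAzer B/G FRET substrate, read after 2 h at room temperature, reflects beta-lactamase reporter activity in VDR-bla cells treated 16 h at 37C with compounds and agonist 1alpha,25-dihydroxyvitamin D3 (3 nM final).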
# [14] = qHTS assay to identify small molecule agonists of the vitamin D receptor (VDR) signaling pathway - cell viability counter screen (AID 743224); details: VDR-bla HEK293T viability, CellTiter-Glo luminescence, 16 h; activity change, negative = cytotoxicity: at 62.6 µM (top of the series) unless noted; note: potency is the fitted concentration of half-maximal effect; nearly all actives have a fitted effect of over 50% in size
# How it was run: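 Compounds were pin-transferred onto VDR-bla cells plated 4 h earlier; following 16 h incubation at 37C, cell viability was quantified by CellTiter-Glo luminescence after 30 min at room temperature.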
# [15] = qHTS assay for small molecule agonists of the antioxidant response element (ARE) signaling pathway (AID 743202; active = well fitted activation curve with a large enough effect in the signal ratio in the repeat runs, not every such curve was filed as active; inconclusive = weak or mixed curves, or effect the other way; inactive = no such curve, though single readings can be large or run the other way; the % refers to the signal ratio; note: potency is the fitted concentration of half-maximal effect); details: HepG2 ARE-bla reporter, beta-lactamase FRET, 16 h; activation: at 73.3 µM (top of the series) unless noted
# How it was run: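 HepG2 ARE-bla reporter line, 2,000 cells/well; 5 h preincubation 37 C/5% CO2; compound (DMSO) 16 h 37 C; B/G FRET substrate 2 h RT; fluorescence intensity.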
# [16] = qHTS assay for small molecule activators of the heat shock response signaling pathway (AID 743210; active = well fitted activation curve with a large enough effect in the signal ratio in the repeat runs, with a control signal flat, not every such curve was filed as active; inconclusive = weak or mixed curves; the % refers to the signal ratio; note: potency is the fitted concentration of half-maximal effect); details: HeLa HSE-bla reporter, beta-lactamase ratio, 5 h; activation: at 62.6 µM (top of the series)
# How it was run: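 Beta-lactamase reporter read-out: FRET substrate fluorescence after 2.5 h at RT, following 5 h compound treatment at 37 C of HeLa cells carrying HSE-driven bla reporter; quantitative HTS format.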
# [17] = qHTS assay to identify small molecule agonists of the peroxisome proliferator-activated receptor delta (PPARd) signaling pathway - cell viability counter screen (AID 743211); details: PPARd-bla HEK293H viability, CellTiter-Glo luminescence, 17 h; activity change, negative = cytotoxicity: at 62.6 µM (top of the series); note: potency is the fitted concentration of half-maximal effect; nearly all actives have a fitted effect of over 55% in size
# How it was run: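 Viability of GeneBLAzer PPARd UAS-bla HEK293H cells was assessed after 17 h compound incubation at 37C, using CellTiter-Glo reagent added after the reporter read and luminescence recorded 30 min later.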
# [18] = target: Bile acid receptor (Homo sapiens) (UniProt Q96RI1); test: qHTS assay to identify small molecule antagonists of the farnesoid-X-receptor (FXR) signaling pathway (AID 743217; active = well fitted inhibition curve with a large enough effect in the signal ratio in the repeat runs, not every such curve was filed as active; inconclusive = weak or mixed curves, or effect the other way; inactive = no such curve, though single readings can be large or run the other way; the % refers to the signal ratio; note: potency is the fitted concentration of half-maximal effect); details: HEK293T FXR-UAS-bla, beta-lactamase ratio, CDCA-stimulated, 16 h; activity change, negative = inhibition: at 62.6 µM (top of the series) unless noted
# Sequence of UniProt Q96RI1 (Q96RI1 whole entry, looked up): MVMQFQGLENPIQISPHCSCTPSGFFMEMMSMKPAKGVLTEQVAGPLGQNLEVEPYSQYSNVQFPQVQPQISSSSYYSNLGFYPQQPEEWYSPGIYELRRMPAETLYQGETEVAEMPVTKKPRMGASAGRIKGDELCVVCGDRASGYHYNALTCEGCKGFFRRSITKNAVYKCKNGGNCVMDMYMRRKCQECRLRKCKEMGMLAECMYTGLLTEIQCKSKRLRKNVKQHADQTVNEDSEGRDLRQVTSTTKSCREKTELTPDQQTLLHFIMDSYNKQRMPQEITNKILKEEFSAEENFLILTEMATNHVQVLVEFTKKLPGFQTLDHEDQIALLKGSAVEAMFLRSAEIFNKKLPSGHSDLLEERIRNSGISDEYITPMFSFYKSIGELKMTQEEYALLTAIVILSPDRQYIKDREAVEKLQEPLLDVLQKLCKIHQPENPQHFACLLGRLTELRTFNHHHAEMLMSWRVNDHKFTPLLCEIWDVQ
# How it was run: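 Screen of the Tox21 10K library in quantitative HTS format using FXR-UAS-bla HEK 293T reporter cells. Agonist chenodeoxycholic acid, 50 uM final, added with compounds; 16 h incubation at 37 °C; beta-lactamase FRET fluorescence measured.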
# [19] = target: Bile acid receptor (Homo sapiens) (UniProt Q96RI1); test: qHTS assay to identify small molecule agonists of the farnesoid-X-receptor (FXR) signaling pathway (AID 743220; active = well fitted activation curve with a large enough effect in the signal ratio in the repeat runs, not every such curve was filed as active; inconclusive = weak or mixed curves, or effect the other way; the % refers to the signal ratio; note: % is set by controls: 0 for no effect and ±100 for the full control effect); details: HEK293T FXR-UAS-bla, beta-lactamase FRET ratio, 16 h; activation: at 62.6 µM (top of the series) unless noted
# How it was run: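 FXR-UAS-bla HEK 293T cells carrying a UAS-driven beta-lactamase reporter were plated for 5 h at 37C/5% CO2, then exposed to DMSO-dissolved Tox21 10K compounds for 16 h at 37C. A LiveBLAzer B/G FRET substrate was loaded for 2 h at room temperature before fluorescence reading.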
# Tags give direction and shape of the fitted curve or compound fluorescence and quenching.
SMILES,Potency [1],Potency [2],Potency [3],Potency [4],Potency [5],Potency [6],Potency [7],Potency [8],Potency [9],Potency [10],Potency [11],activation [2],Potency [12],Potency [13],Potency [14],Potency [15],Potency [16],Potency [17],Potency [18],activation [19]
CCCCCCCCCCCCN,"inconclusive: 68.6 µM [falling, single point]",inactive,inconclusive: 54.9 µM [cytotoxic],"inconclusive: 14 µM [cytotoxic, full curve]","active: 24.3 µM and inconclusive: 62 µM [cytotoxic, single point]",active: 43.6 µM,"inconclusive: 54.9 µM [falling, single point]",active: 49 µM,"inconclusive: 61.6 µM [cytotoxic, single point]",active: 43.6 µM,inactive and active: 54.9 µM,,,,,,,,,
C[C@@H]1CC(=O)NN=C1c1ccc(NN=C(C#N)C#N)cc1,active: 26.6 µM,,,,,,,,,,,inconclusive: -21.4%,"inconclusive: 7.5 µM [rising, full curve] and inconclusive: 2.11 µM [rising, full curve]",inconclusive: 15.1 µM [partial curve] and inconclusive: 9.52 µM [partial curve],"inconclusive: 3.76 µM [cytotoxic, full curve, poor fit]",,,,,
CC(C)c1cccc(C(C)C)c1N1C(=O)c2ccc(O)cc2C1=O,"inconclusive: 68.6 µM [rising, single point]",,"inconclusive: 49 µM [rising, partial curve]",inconclusive: 54.9 µM [cytotoxic],"inconclusive: 68.6 µM [cytotoxic, single point]",,"inconclusive: 49 µM [rising, single point]","inconclusive: 54.9 µM [cytotoxic, single point]","inconclusive: 30.9 µM [rising, partial curve]",,active: 49 µM,,,"inconclusive: 49 µM [rising, partial curve]",active: 43.6 µM,"inconclusive: 27.3 µM [rising, single point]","inconclusive: 49 µM [activator, partial curve, poor fit]","inconclusive: 43.6 µM [cytotoxic, partial curve]","inconclusive: 3.09 µM [rising, full curve]",inconclusive: 0.755%
